We go through four molecules from patent US11814370B2, “Deuterated N-(5-(2,3-dihydrobenzo[b][1,4]dioxine-6-carboxamido)-2-fluorophenyl)-2-((4-ethylpiperazin-1-yl)methyl)quinoline-6-carboxamide” (priority 2016, dated 2023).

Where two headings read alike, the source gives them in different places.

The nature of data set [1]: in vitro. The following applies: rat, cryopreserved pooled hepatocytes in suspension.
A short description of data set [2]: in vitro. The conditions noted are these: mouse, cryopreserved pooled hepatocytes in suspension.
The nature of data set [3]: in vivo. The following applies: female, CD, rat.
For data set [4] the following is noted: for fup: mouse plasma, 5 μM, dialysis 4 h at 37° C.; for fub: mouse, fub = fup/B:P.
Data set [5] deals with Human Hepatocyte. The conditions noted are these: for predicted unbound human clearance: predicted from the in vitro hepatocyte data.
The conditions of data set [6]: for fup: rat plasma, 5 μM, dialysis 4 h at 37° C.; for fub: rat, fub = fup/B:P.
The nature of data set [7]: in vitro. The following applies: dog, cryopreserved pooled hepatocytes in suspension.
The conditions of data set [8]: rat; for Clu: Clu = Cl/fub; for Vdu: Vdu = Vss/fub.
For data set [9] the following is noted: mouse; for Clu: Clu = Cl/fub; for Vdu: Vdu = Vss/fub.
A short description of data set [10]: in vitro. The conditions noted are these: human, cryopreserved pooled hepatocytes in suspension.
Data set [11] is described as follows: in vivo. The following applies: female, Balb/C, mouse, 5 mg/kg.

With `[2H]C([2H])([2H])C([2H])([2H])N1CCN(Cc2ccc3cc(C(=O)Nc4cc(NC(=O)c5ccc6c(c5)OCCO6)ccc4F)ccc3n2)CC1` [Compound A, N-(5-(2,3-Dihydrobenzo[b][1,4]dioxine-6-carboxamido)-2-fluorophenyl)-2-((4-ethyl-d5-piperazin-1-yl)methyl)quinoline-6-carboxamide], the hepatocyte CLint at 1 μM came to 24 µL/min/1e6 cells in [1]; 44 µL/min/1e6 cells in data set [2]; 73 µL/min/1e6 cells in [7] (female); 37 µL/min/1e6 cells in data set [7] (male); 5 µL/min/1e6 cells in data set [10]. This molecule showed a bioavailability in data set [3] of 20%. The same molecule gave a half-life in [3] of 3.5 h. In data set [3] (1 mg/Kg), this molecule registered a Vd of 5.6 L/kg. The molecule further yielded a clearance in data set [3] (1 mg/Kg) of 25 mL/min/kg. Also, the results for the fup in [4] and in data set [6] were 0.0397 and 0.0365, respectively. For the same molecule, the fub was determined as 0.012 in data set [4] and 0.040 in data set [6]. The “predicted improvement in human unbound clearance” value in data set [5] (compound A compared to compound D) is on record as 2 fold. Moreover, the “human hepatocyte stability compared to reference Compound D (in words)” value in [5] (human hepatocyte stability assay) is recorded as “improved in vitro properties”. The “predicted unbound human clearance” value in [5] was 30 mL/min/kg. Also, the “ADME advantage in vivo compared to Compound D (in words)” value in data set [8] and in data set [9] was “did not show any ADME advantage” each time. Moreover, the Clu in data set [8] is 625 mL/min/kg; in [9] it was 1000 mL/min/kg. Further, the Vdu in data set [8] and in [9] was 140 L/kg throughout.
In turn, `[2H]C1([2H])N(CC)C([2H])([2H])C([2H])([2H])N(Cc2ccc3cc(C(=O)Nc4cc(NC(=O)c5ccc6c(c5)OCCO6)ccc4F)ccc3n2)C1([2H])[2H]` [Compound B, N-(5-(2,3-Dihydrobenzo[b][1,4]dioxine-6-carboxamido)-2-fluorophenyl)-2-((4-ethyl-piperazin-d8-1-yl)methyl)quinoline-6-carboxamide] came in with a hepatocyte CLint at 1 μM in [1] of 38 µL/min/1e6 cells.
For the molecule `[2H]C1([2H])Oc2ccc(C(=O)Nc3ccc(F)c(NC(=O)c4ccc5nc(CN6CCN(CC)CC6)ccc5c4)c3)cc2OC1([2H])[2H]` [Compound C, N-(5-(2,3-Dihydrobenzo-d4-[b][1,4]dioxine-6-carboxamido)-2-fluorophenyl)-2-((4-ethylpiperazin-1-yl)methyl)quinoline-6-carboxamide], the hepatocyte CLint at 1 μM was 25 µL/min/1e6 cells in [1]; 53 µL/min/1e6 cells in [2]; 73 µL/min/1e6 cells in data set [7] (female); 30 µL/min/1e6 cells in data set [7] (male); 9 µL/min/1e6 cells in [10].
For `CCN1CCN(Cc2ccc3cc(C(=O)Nc4cc(NC(=O)c5ccc6c(c5)OCCO6)ccc4F)ccc3n2)CC1` [Compound D, N-(5-(2,3-Dihydrobenzo[b][1,4]dioxine-6-carboxamido)-2-fluorophenyl)-2-((4-ethylpiperazin-1-yl)methyl)quinoline-6-carboxamide], the hepatocyte CLint at 1 μM was found to be 38 µL/min/1e6 cells in data set [1]; 42 µL/min/1e6 cells in [2]; 40 µL/min/1e6 cells in data set [7] (female); 31 µL/min/1e6 cells in data set [7] (male); 9 µL/min/1e6 cells in [10]. The Vd in [11] stood at 1.9 L/kg. In data set [11], the clearance was 10 mL/min/kg. In data set [11], the half-life was 4.1 h. In data set [11] (po), this molecule gave an AUC(0-t) of 6.05 µM·h. For the same molecule, the fup in [4] is listed as 0.0425; in [6], 0.0344. Besides, the fub was 0.012 in [4] and 0.032 in data set [6]. For the same molecule, the “predicted unbound human clearance” value in [5] was 54 mL/min/kg. Moreover, the Clu in [8] came out at 750 mL/min/kg; in data set [9], 833 mL/min/kg. Besides, the values for the Vdu in data set [8] and in [9] were 228 L/kg and 158 L/kg, respectively.
